Measured values published in the supplement of paper PMC12217912.
Some of the results follow. Sequences were assembled here from the parent chain. Values near 0.05 are background.

B1: TEV protease; numbered along this chain (parent)
chain: MGESLFKGPRDYNPISSSICHLTNESDGHTTSLYGIGFGPFIITNKHLFRRNNGTLVVQSLHGVFKVKDTTTLQQHLVDGRDMIIIRMPKDFPPFPQKLKFREPQREERICLVTTNFQTKSMSSMVSDTSCTFPSGDGIFWKHWIQTKDGQCGSPLVSTRDGFIVGIHSASNFTNTNNYFTSVPKNFMELLTNQEAQQWVSGWRLNADSVLWGGHKVFMVKPEEPFQPVKEATQL

Variants of: B1
Assay: raw area under fraction-flipped curve 0-4 h after induction (AUC4h, not background-subtracted), DNA-recorder readout of cleavage of the substrate (dimensionless); higher = more cleavage of the substrate by the protease variant
Conditions: temperature: 34 °C; time window: 0-4 h after rhamnose induction
Description: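 In vivo DNA recorder in E. coli TOP10(DE3) ΔrhaA at 34 °C. Each TEVp single-site mutant (parent TEVp 0) is paired with a single-site variant of the 7-mer TEVs (canonical ENLYFQ|S). The substrate sits between flexible linkers in a Bxb1-sfGFP-TEVs-SsrA fusion, so cleavage stabilises Bxb1 and speeds flipping of a recombination array, read by NGS. The value is the raw area under the fraction-flipped curve over 0-4 h after rhamnose induction (AUC4h), with ≥20 reads per time point. It is not background-subtracted; inactive controls average about 0.047.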
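Further: Bxb1 expression induced with 0.2% (w/v) L-rhamnose at OD600 near 0.5, cultures sampled hourly, flipped fraction per protease–substrate barcode pair counted by paired-end Illumina sequencing.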

## MGESLFKGPRDYNPISSSICHLTNESDGHTTSLYGIGFGPFIITNKHLFRRNNGTLVVQSLHGVFKVKDTTTLQQHLVDGRDMIIIRMPKDFPPFPQKLKFREPQREERICLVTTNFQTKSMSSMVSDTSCTFPSGDGIFWKHWIQTKDGQCGSPLVSTRDGFIVGIHSASNMTNTNNYFTSVPKNFMELLTNQEAQQWVSGWRLNADSVLWGGHKVFMVKPEEPFQPVKEATQL [F173M]
  area with substrate ENAYFQS: 0.0684
  area with substrate ENCYFQS: 0.0757
  area with substrate ENDYFQS: 0.0689
  area with substrate ENEYFQS: 0.0166
  area with substrate ENIYFQS: 0.109
  area with substrate ENKYFQS: 0.0037
  area with substrate ENMYFQS: 0.0785
  area with substrate ENQYFQS: 0.0693
  area with substrate ENSYFQS: 0.09
  area with substrate ENTYFQS: 0.0566
  area with substrate ENVYFQS: 0.0797

## MGESLFKGPRDYNPISSSICHLTNESDGHTTSLYGIGFGPFIITNKHLFRRNNGTLVVQSLHGVFKVKDTTTLQQHLVDGRDMIIIRMPKDFPPFPQKLKFREPQREERICLVTTNFQTKSMSSMVSDTSCTFPSGDGIFWKHWIQTKDGQCGSPLVSTRDGFIVGIHSASNFTETNNYFTSVPKNFMELLTNQEAQQWVSGWRLNADSVLWGGHKVFMVKPEEPFQPVKEATQL [N175E]
  area with substrate ENAYFQS: 0.0642
  area with substrate ENCYFQS: 0.0469
  area with substrate ENDYFQS: 0.0699
  area with substrate ENEYFQS: 0.0612
  area with substrate ENFYFQS: 0.0558
  area with substrate ENGYFQS: 0.0511
  area with substrate ENHYFQS: 0.0635
  area with substrate ENPYFQS: 0.0674
  area with substrate ENSYFQS: 0.0696
  area with substrate ENVYFQS: 0.0628

## MGESLFKGPRDYNPISSSICHLTNESDGHTTSLYGIGFGPFIITNKHLFRRNNGTLVVQSLHGVFKVKDTTTLQQHLVDGRDMIIIRMPKDFPPFPQKLKFREPQREERICLVTTNFQTKSMSSMVSDTSCTFPSGDGIFWKHWIQTKDGQCGSPLVSTRDGFIVGIHSASNFTNTNNKFTSVPKNFMELLTNQEAQQWVSGWRLNADSVLWGGHKVFMVKPEEPFQPVKEATQL [Y179K]
  area with substrate ENAYFQS: 0.061
  area with substrate ENCYFQS: 0.0476
  area with substrate ENEYFQS: 0.0693
  area with substrate ENKYFQS: 0.0668
  area with substrate ENNYFQS: 0.0741
  area with substrate ENPYFQS: 0.0635
  area with substrate ENQYFQS: 0.0532
  area with substrate ENRYFQS: 0.0536
  area with substrate ENSYFQS: 0.051

## MGESLFKGPRDYNPISSSICHLTNESDGHTTSLYGIGFGPFIITNKHLFRRNNGTLVVQSLHGVFKVKDTTTLQQHLVDGRDMIIIRMPKDFPPFPQKLKFREPQREERICLVTTNFQTKSMSSMVSDTSCTFPSGDGIFWKHWIQTKDGQCGSPLVSTRDGFIVGIHSASNFTNTNNYGTSVPKNFMELLTNQEAQQWVSGWRLNADSVLWGGHKVFMVKPEEPFQPVKEATQL [F180G]
  area with substrate ENAYFQS: 0.0503
  area with substrate ENCYFQS: 0.0382
  area with substrate ENDYFQS: 0.0543
  area with substrate ENKYFQS: 0.054
  area with substrate ENMYFQS: 0.0485
  area with substrate ENQYFQS: 0.0857
  area with substrate ENRYFQS: 0.0309
  area with substrate ENSYFQS: 0.0481
  area with substrate ENVYFQS: 0.0508
  area with substrate ENYYFQS: 0.0502

## MGESLFKGPRDYNPISSSICHLTNESDGHTTSLYGIGFGPFIITNKHLFRRNNGTLVVQSLHGVFKVKDTTTLQQHLVDGRDMIIIRMPKDFPPFPQKLKFREPQREERICLVTTNFQTKSMSSMVSDTSCTFPSGDGIFWKHWIQTKDGQCGSPLVSTRDGFIVGIHSASNFTNTNNYFPSVPKNFMELLTNQEAQQWVSGWRLNADSVLWGGHKVFMVKPEEPFQPVKEATQL [T181P]
  area with substrate ENAYFQS: 0.0714
  area with substrate ENCYFQS: 0.0656
  area with substrate ENEYFQS: 0.0745
  area with substrate ENGYFQS: 0.0456
  area with substrate ENHYFQS: 0.0599
  area with substrate ENIYFQS: 0.0654
  area with substrate ENKYFQS: 0.0563
  area with substrate ENMYFQS: 0.0558
  area with substrate ENPYFQS: 0.041
  area with substrate ENQYFQS: 0.0647
  area with substrate ENRYFQS: 0.0554
  area with substrate ENSYFQS: 0.0962
  area with substrate ENTYFQS: 0.0551
  area with substrate ENVYFQS: 0.0691
  area with substrate ENWYFQS: 0.0554
  area with substrate ENYYFQS: 0.0659

## MGESLFKGPRDYNPISSSICHLTNESDGHTTSLYGIGFGPFIITNKHLFRRNNGTLVVQSLHGVFKVKDTTTLQQHLVDGRDMIIIRMPKDFPPFPQKLKFREPQREERICLVTTNFQTKSMSSMVSDTSCTFPSGDGIFWKHWIQTKDGQCGSPLVSTRDGFIVGIHSASNFTNTNNYFTKVPKNFMELLTNQEAQQWVSGWRLNADSVLWGGHKVFMVKPEEPFQPVKEATQL [S182K]
  area with substrate ENAYFQS: 0.0547
  area with substrate ENCYFQS: 0.0677
  area with substrate ENDYFQS: 0.0564
  area with substrate ENEYFQS: 0.0606
  area with substrate ENFYFQS: 0.0558
  area with substrate ENGYFQS: 0.0609
  area with substrate ENHYFQS: 0.0603
  area with substrate ENIYFQS: 0.0781
  area with substrate ENKYFQS: 0.0561
  area with substrate ENMYFQS: 0.0513
  area with substrate ENNYFQS: 0.0558
  area with substrate ENQYFQS: 0.0592
  area with substrate ENRYFQS: 0.0621
  area with substrate ENSYFQS: 0.0565
  area with substrate ENTYFQS: 0.0485
  area with substrate ENVYFQS: 0.0487
  area with substrate ENWYFQS: 0.0473
  area with substrate ENYYFQS: 0.043

## MGESLFKGPRDYNPISSSICHLTNESDGHTTSLYGIGFGPFIITNKHLFRRNNGTLVVQSLHGVFKVKDTTTLQQHLVDGRDMIIIRMPKDFPPFPQKLKFREPQREERICLVTTNFQTKSMSSMVSDTSCTFPSGDGIFWKHWIQTKDGQCGSPLVSTRDGFIVGIHSASNFTNTNNYFTNVPKNFMELLTNQEAQQWVSGWRLNADSVLWGGHKVFMVKPEEPFQPVKEATQL [S182N]
  area with substrate ENAYFQS: 0.0521
  area with substrate ENCYFQS: 0.0492
  area with substrate ENDYFQS: 0.0645
  area with substrate ENEYFQS: 0.0817
  area with substrate ENFYFQS: 0.0724
  area with substrate ENKYFQS: 0.0535
  area with substrate ENQYFQS: 0.0581
  area with substrate ENRYFQS: 0.0539
  area with substrate ENSYFQS: 0.0593
  area with substrate ENVYFQS: 0.0515
  area with substrate ENWYFQS: 0.0202
  area with substrate ENYYFQS: 0.0611

## MGESLFKGPRDYNPISSSICHLTNESDGHTTSLYGIGFGPFIITNKHLFRRNNGTLVVQSLHGVFKVKDTTTLQQHLVDGRDMIIIRMPKDFPPFPQKLKFREPQREERICLVTTNFQTKSMSSMVSDTSCTFPSGDGIFWKHWIQTKDGQCGSPLVSTRDGFIVGIHSASNFTNTNNYFTSLPKNFMELLTNQEAQQWVSGWRLNADSVLWGGHKVFMVKPEEPFQPVKEATQL [V183L]
  area with substrate ENAYFQS: 0.0625
  area with substrate ENDYFQS: 0.0552
  area with substrate ENKYFQS: 0.175
  area with substrate ENPYFQS: 0.0601
  area with substrate ENQYFQS: 0.0715
  area with substrate ENRYFQS: 0.0619
  area with substrate ENSYFQS: 0.0498
  area with substrate ENTYFQS: 0.0498
  area with substrate ENVYFQS: 0.054

## MGESLFKGPRDYNPISSSICHLTNESDGHTTSLYGIGFGPFIITNKHLFRRNNGTLVVQSLHGVFKVKDTTTLQQHLVDGRDMIIIRMPKDFPPFPQKLKFREPQREERICLVTTNFQTKSMSSMVSDTSCTFPSGDGIFWKHWIQTKDGQCGSPLVSTRDGFIVGIHSASNFTNTNNYFTSNPKNFMELLTNQEAQQWVSGWRLNADSVLWGGHKVFMVKPEEPFQPVKEATQL [V183N]
  area with substrate ENAYFQS: 0.0693
  area with substrate ENCYFQS: 0.0771
  area with substrate ENEYFQS: 0.0702
  area with substrate ENGYFQS: 0.0697
  area with substrate ENKYFQS: 0.0597
  area with substrate ENPYFQS: 0.0526
  area with substrate ENVYFQS: 0.0787

## MGESLFKGPRDYNPISSSICHLTNESDGHTTSLYGIGFGPFIITNKHLFRRNNGTLVVQSLHGVFKVKDTTTLQQHLVDGRDMIIIRMPKDFPPFPQKLKFREPQREERICLVTTNFQTKSMSSMVSDTSCTFPSGDGIFWKHWIQTKDGQCGSPLVSTRDGFIVGIHSASNFTNTNNYFTSVMKNFMELLTNQEAQQWVSGWRLNADSVLWGGHKVFMVKPEEPFQPVKEATQL [P184M]
  area with substrate ENAYFQS: 0.0588
  area with substrate ENCYFQS: 0.0536
  area with substrate ENDYFQS: 0.0521
  area with substrate ENEYFQS: 0.0438
  area with substrate ENFYFQS: 0.0519
  area with substrate ENGYFQS: 0.0501
  area with substrate ENHYFQS: 0.0584
  area with substrate ENIYFQS: 0.0791
  area with substrate ENKYFQS: 0.0648
  area with substrate ENMYFQS: 0.0597
  area with substrate ENNYFQS: 0.0503
  area with substrate ENPYFQS: 0.0416
  area with substrate ENQYFQS: 0.0534
  area with substrate ENRYFQS: 0.0608
  area with substrate ENSYFQS: 0.0555
  area with substrate ENVYFQS: 0.0559
  area with substrate ENYYFQS: 0.0536
